One assay deals with HSkMC. Nature of the assay: cytotoxicity call (relative viability < 0.9). Particulars: 10 µM.
In a further assay the test system is HepG2. Nature of the assay: cytotoxicity call (relative viability < 0.9). Particulars: 10 µM.
The subject of a further assay is S. aureus RN4220. Nature of the assay: growth inhibition call (relative growth <= 0.2). Particulars: 50 µM.

The other results are listed elsewhere or left out.

For the molecule `NC(=S)c1ccc(-n2cncn2)nc1`, the cytotoxicity call in the assay on HSkMC and with HepG2 was “inactive” in each case. Also, in the assay on S. aureus RN4220, the growth inhibition call is “inactive”.

As to `COc1ccccc1-c1ccc2c(c1)O[C@@H](CN(C)CC1CCOCC1)[C@H](C)CN([C@H](C)CO)S2(=O)=O`, the cytotoxicity call in the assay with HSkMC and in the assay with HepG2 was “inactive” each time. Moreover, the growth inhibition call in the assay on S. aureus RN4220 is “inactive”.

Regarding `O=C(C[C@H]1C[C@@H]2c3cc(NS(=O)(=O)c4ccc(F)cc4)ccc3O[C@@H]2[C@H](CO)O1)NCc1ccccc1F`, the cytotoxicity call in the assay with HSkMC and with HepG2 was “inactive” throughout. The growth inhibition call in the assay with S. aureus RN4220 is “inactive”.

Take `C[C@@H]1CN([C@@H](C)CO)C(=O)CCCn2nncc2CO[C@H]1CN(C)C(=O)c1cc(-c2ccccc2)on1`: the cytotoxicity call in the assay with HSkMC and with HepG2 was “inactive” in each case. Also, in the assay on S. aureus RN4220, the growth inhibition call is “inactive”.

Regarding `OC[C@@H]1CN(CCN2CCOCC2)C[C@H](n2cnc3c(NC4CCC4)ncnc32)O1`, the cytotoxicity call with HSkMC and in the assay on HepG2 was “inactive” throughout. Moreover, in the assay on S. aureus RN4220, the growth inhibition call was “inactive”.

Consider `C[C@H](CO)N1C[C@H](C)[C@@H](CN(C)Cc2ccc(C(F)(F)F)cc2)Oc2ccc(NC(=O)Nc3ccc(F)cc3)cc2CC1=O`, for which the cytotoxicity call in the assay with HSkMC and in the assay with HepG2 was “active” each time. Moreover, the growth inhibition call with S. aureus RN4220 was “inactive”.

Take `Cc1nn(C)cc1NC(=O)C[C@H]1CC[C@H]2[C@H](COc3ccc(NC(=O)C4CCOCC4)cc3C(=O)N2C)O1`: the cytotoxicity call with HSkMC and in the assay on HepG2 was “inactive” throughout. The growth inhibition call in the assay on S. aureus RN4220 is “inactive”.

Consider `C[C@H]1CCCCO[C@@H](CN(C)C(=O)Nc2ccc(C(F)(F)F)cc2)[C@@H](C)CN([C@@H](C)CO)C(=O)c2cc(NS(=O)(=O)c3ccccc3)ccc2O1`, for which, in the assay on HSkMC, the cytotoxicity call is “inactive”. Also, in the assay on HepG2, the cytotoxicity call was “active”. Further, the growth inhibition call in the assay on S. aureus RN4220 was “inactive”.

As to `C[C@@H]1CN([C@H](C)CO)C(=O)c2cc(NS(=O)(=O)c3ccccc3)ccc2O[C@@H](C)CCCCO[C@@H]1CN(C)Cc1ccc(Cl)c(Cl)c1`, the cytotoxicity call with HSkMC and in the assay on HepG2 was “active” in each case. Moreover, the growth inhibition call with S. aureus RN4220 was “inactive”.

On to `C[C@@H]1CN([C@H](C)CO)C(=O)Cc2cc(NC(=O)CCCCCC(=O)Nc3ccccc3N)ccc2O[C@H]1CN(C)CC1CCCCC1`, for which the cytotoxicity call with HSkMC and in the assay on HepG2 was “inactive” each time. In the assay with S. aureus RN4220, the growth inhibition call is “inactive”.

On to `NC(=O)N[C@@H]1CC(=O)N(c2ccccc2)C1`, for which the cytotoxicity call in the assay with HSkMC and in the assay on HepG2 was “inactive” in each case. Also, the growth inhibition call in the assay on S. aureus RN4220 was “inactive”.

In the case of `O=C(O)CN(CC(=O)O)Cc1cc2c(-c3ccccc3C(=O)O)c3cc(CN(CC(=O)O)CC(=O)O)c(=O)cc-3oc2cc1O`, the cytotoxicity call with HSkMC and in the assay on HepG2 was “inactive” each time. The growth inhibition call with S. aureus RN4220 is “inactive”.

Turning to `Cc1noc(C)c1NC(=O)Nc1ccc2c(c1)CC(=O)N([C@@H](C)CO)C[C@H](C)[C@H](CN(C)S(=O)(=O)c1c(C)noc1C)O2`, the cytotoxicity call in the assay on HSkMC and in the assay with HepG2 was “inactive” in each case. Further, in the assay with S. aureus RN4220, the growth inhibition call is “inactive”.

On to `Cc1noc(C)c1NC(=O)Nc1ccc2c(c1)C(=O)N([C@@H](C)CO)C[C@@H](C)[C@@H](CN(C)C(=O)Nc1cccc3ccccc13)OCCCC[C@@H](C)O2`, for which the cytotoxicity call in the assay with HSkMC and in the assay on HepG2 was “inactive” in each case. Moreover, in the assay with S. aureus RN4220, the growth inhibition call is “inactive”.

With `C[C@@H]1CCCCO[C@H](CN(C)S(=O)(=O)c2ccc(Cl)cc2)[C@H](C)CN([C@H](C)CO)C(=O)c2cc(NS(=O)(=O)c3ccc(Cl)cc3)ccc2O1`, the cytotoxicity call in the assay on HSkMC is “inactive”. For the same molecule, in the assay on HepG2, the cytotoxicity call was “active”. The growth inhibition call in the assay on S. aureus RN4220 is “inactive”.

`O=C(C[C@@H]1C[C@H]2c3cc(NC(=O)C4CCOCC4)ccc3O[C@H]2[C@@H](CO)O1)NCc1ccc2c(c1)OCO2`: the cytotoxicity call in the assay on HSkMC and with HepG2 was “inactive” in each case. Besides, the growth inhibition call in the assay with S. aureus RN4220 is “inactive”.

Regarding `O=S(=O)([O-])CCCS(=O)(=O)[O-].[Na+].[Na+]`, the cytotoxicity call in the assay on HSkMC and with HepG2 was “inactive” throughout. Further, in the assay with S. aureus RN4220, the growth inhibition call was “inactive”.

Consider `O=C(O)[C@@H]1[C@@H]2CC[C@@H](C2)[C@H]1C(=O)O`, for which the cytotoxicity call with HSkMC and in the assay on HepG2 was “inactive” in each case. Also, in the assay with S. aureus RN4220, the growth inhibition call is “inactive”.

Consider `C[C@@H]1CCCCO[C@@H](CN(C)C(=O)c2ccccc2)[C@@H](C)CN([C@@H](C)CO)C(=O)c2cc(NC(=O)c3ccccc3)ccc2O1`, for which the cytotoxicity call with HSkMC and with HepG2 was “inactive” each time. The growth inhibition call with S. aureus RN4220 was “inactive”.

`CNC[C@H]1OCCCC[C@H](C)Oc2ccc(NC(=O)c3ccncc3)cc2C(=O)N([C@@H](C)CO)C[C@@H]1C`: the cytotoxicity call with HSkMC and with HepG2 was “inactive” in each case. Besides, the growth inhibition call in the assay on S. aureus RN4220 is “inactive”.

With `COc1ccc(CN(C)C[C@@H]2OCCCC[C@H](C)Oc3ccc(NC(=O)Nc4ccc(OC)cc4)cc3C(=O)N([C@@H](C)CO)C[C@@H]2C)cc1`, in the assay on HSkMC, the cytotoxicity call was “inactive”. Moreover, in the assay on HepG2, the cytotoxicity call is “active”. The growth inhibition call in the assay with S. aureus RN4220 is “inactive”.

Consider `C[C@H](CO)N1C[C@H](C)[C@H](CN(C)C(=O)Nc2ccc3c(c2)OCO3)Oc2ccc(NC(=O)Cn3cnnn3)cc2CC1=O`, for which the cytotoxicity call with HSkMC and in the assay on HepG2 was “inactive” each time. Besides, the growth inhibition call with S. aureus RN4220 is “inactive”.

In the case of `Cc1noc(C)c1NC(=O)Nc1ccc2c(c1)C(=O)N([C@@H](C)CO)C[C@@H](C)[C@@H](CN(C)S(=O)(=O)c1ccccc1)OCCCC[C@H](C)O2`, the cytotoxicity call in the assay with HSkMC and with HepG2 was “inactive” each time. Besides, in the assay on S. aureus RN4220, the growth inhibition call was “inactive”.

As for `C[C@@H]1CN([C@H](C)CO)C(=O)c2cccc(NS(C)(=O)=O)c2O[C@@H]1CN(C)C(=O)NC1CCCCC1`, the cytotoxicity call in the assay with HSkMC and with HepG2 was “inactive” each time. Further, in the assay with S. aureus RN4220, the growth inhibition call is “inactive”.

In the case of `C[C@@H]1CCCCO[C@H](CN(C)S(C)(=O)=O)[C@@H](C)CN([C@@H](C)CO)C(=O)c2cc(NS(=O)(=O)c3ccc(F)cc3)ccc2O1`, the cytotoxicity call in the assay with HSkMC and with HepG2 was “inactive” in each case. Moreover, the growth inhibition call with S. aureus RN4220 was “inactive”.

Take `C[C@H](CO)N1C[C@H](C)[C@@H](CN(C)C(=O)Nc2ccc(F)cc2)OCc2ccccc2-c2ccccc2C1=O`: the cytotoxicity call with HSkMC and with HepG2 was “inactive” throughout. The growth inhibition call with S. aureus RN4220 was “inactive”.

As for `Cc1ccc(S(=O)(=O)N[C@@H](Cc2ccccc2)C(=O)NCCCn2cc(C(=O)NO)nn2)cc1`, the cytotoxicity call in the assay with HSkMC and with HepG2 was “inactive” throughout. For the same molecule, the growth inhibition call in the assay with S. aureus RN4220 is “inactive”.

Take `C[C@H](CO)N1C[C@H](C)[C@H](CN(C)S(=O)(=O)c2cn(C)cn2)Oc2ccc(NC(=O)CCC(F)(F)F)cc2CC1=O`: the cytotoxicity call with HSkMC and in the assay on HepG2 was “inactive” in each case. In addition, in the assay with S. aureus RN4220, the growth inhibition call was “inactive”.

Regarding `COc1ccc(S(=O)(=O)N(C)C[C@@H]2Oc3ccc(NS(C)(=O)=O)cc3C(=O)N([C@H](C)CO)C[C@@H]2C)cc1`, the cytotoxicity call with HSkMC and in the assay on HepG2 was “inactive” throughout. For the same molecule, the growth inhibition call with S. aureus RN4220 is “inactive”.

Take `C[C@H](CO)N1C[C@H](C)[C@H](CN(C)S(=O)(=O)c2ccc(-c3ccccc3)cc2)OCc2cnnn2CCCC1=O`: the cytotoxicity call in the assay with HSkMC and with HepG2 was “inactive” in each case. Moreover, the growth inhibition call in the assay on S. aureus RN4220 was “inactive”.

Turning to `O=C(C[C@H]1CC[C@@H](NS(=O)(=O)c2ccc(F)cc2)[C@H](CO)O1)NCc1ccc(Cl)c(Cl)c1`, the cytotoxicity call in the assay on HSkMC and in the assay with HepG2 was “inactive” each time. The growth inhibition call with S. aureus RN4220 is “inactive”.

With `CC(=O)SCC(Cc1ccccc1)C(=O)NCC(=O)OCc1ccccc1` (configuration not stated), the cytotoxicity call in the assay with HSkMC and with HepG2 was “inactive” throughout. Moreover, the growth inhibition call in the assay with S. aureus RN4220 was “inactive”.

As for `CCC[C@@H]1C[C@@H](C(=O)N[C@H]([C@H]2O[C@H](SC)[C@H](O)[C@@H](O)[C@H]2O)[C@@H](C)Cl)N(C)C1`, the cytotoxicity call with HSkMC and in the assay with HepG2 was “inactive” each time. Moreover, the growth inhibition call with S. aureus RN4220 was “active”.

Turning to `COc1cc(OC)cc(C(=O)OCCCNCCNCCCOC(=O)c2cc(OC)cc(OC)c2)c1`, the cytotoxicity call with HSkMC and in the assay with HepG2 was “inactive” in each case. For the same molecule, the growth inhibition call in the assay with S. aureus RN4220 was “inactive”.

For the molecule `Cc1ccc(S(=O)(=O)Nc2ccc3c(c2)CC(=O)N([C@@H](C)CO)C[C@@H](C)[C@@H](CN(C)S(=O)(=O)c2ccc(F)cc2)O3)cc1`, the cytotoxicity call in the assay on HSkMC and with HepG2 was “inactive” each time. In addition, the growth inhibition call with S. aureus RN4220 is “inactive”.

Consider `CC(=O)N(C)C[C@@H]1Oc2ncc(C#CC(C)(C)O)cc2C(=O)N([C@@H](C)CO)C[C@H]1C`, for which the cytotoxicity call in the assay on HSkMC (human skeletal muscle cells) and with HepG2 was “inactive” in each case. Further, the growth inhibition call in the assay with S. aureus RN4220 is “inactive”.

As for `O=C1C(CCS(=O)c2ccccc2)C(=O)N(c2ccccc2)N1c1ccccc1` (configuration not stated), the cytotoxicity call with HSkMC and in the assay with HepG2 was “inactive” throughout. The growth inhibition call with S. aureus RN4220 is “inactive”.

For the molecule `Cc1noc(C)c1S(=O)(=O)Nc1ccc2c(c1)C(=O)N([C@@H](C)CO)C[C@@H](C)[C@@H](CN(C)C(=O)NC(C)C)O2`, the cytotoxicity call with HSkMC and in the assay on HepG2 was “inactive” in each case. Further, the growth inhibition call in the assay on S. aureus RN4220 was “inactive”.

Take `C[C@H](CO)N1C[C@H](C)[C@H](CN(C)S(=O)(=O)c2ccc(F)cc2)OCCCC[C@H](C)Oc2ccc(NS(=O)(=O)c3ccc(Cl)cc3)cc2C1=O`: the cytotoxicity call with HSkMC and with HepG2 was “inactive” each time. The growth inhibition call with S. aureus RN4220 was “inactive”.

The values above are taken from the antibiotic and cytotoxicity screens of Wong et al. (2023).
